Results published in PubChem BioAssay AID344 (DTP/NCI, 2004).
Toxic doses and inconclusive results are not listed. Not every entry of the source has a single result; some have several. The other results are left out here. There may be further records. Results that share an entry are repeats in other runs, samples, wells, individuals or studies. A tag in brackets gives the origin of a value. A, B and so on number the origins entry by entry.

System: mice, LPC-1 plasma cell tumor ip, median survival T/C
Assay: NCI In Vivo Anticancer Drug Screen. Data for tumor model Lieberman Plasma Cell No. 1 (LPC-1) (intraperitoneal) in unknown mice
Settings: endpoint: median survival time, schedule: Q01DX028 (sc), higher = longer survival
Description: The antitumor activity of compounds was measured in mice bearing transplantable tumors. Survival or tumor size were measured and the results are expressed as the measurement made in the treated group (T) divided by the measurement made in the vehicle treated control group (C). The tumor model used in this assay is Lieberman Plasma Cell No. 1 (LPC-1) (intraperitoneal) in unknown mice

## O=P1(N(CCCl)CCCl)NCCCO1 (stereo not given)
dose: 5.0 mg/kg/injection, vehicle: saline
  T/C: 120 % of control and 165 % of control

## N[C@@H](Cc1ccc(N(CCCl)CCCl)cc1)C(=O)O
dose: 0.65 mg/kg/injection, vehicle: saline
  T/C: 118 % of control, 165 % of control, 175 % of control

## OC(CBr)C(O)C(O)C(O)CBr (stereo not given)
dose: 62.5 mg/kg/injection, vehicle: carboxymethylcellulose (CMC)
  T/C: 89 % of control, 151 % of control [sample A] and 94 % of control [sample B]
dose: 250.0 mg/kg/injection, vehicle: carboxymethylcellulose (CMC)
  T/C: 161 % of control [sample A] and 94 % of control [sample B]

## O=NN(CCCl)C(=O)NC1CCCCC1
dose: 22.0 mg/kg/injection, vehicle: carboxymethylcellulose (CMC)
  T/C: 102 % of control and 162 % of control
